{"source": "PubChem BioAssay AID1347165", "about": "(National Center for Advancing Translational Sciences (NCATS), 2019)", "note": "The whole screen tested about 220,000 compounds, of which about 5,700 (2.6%) were called active. The inconclusive results got no clear call from the source; some entries with a clear call stand among them for comparison. The call rests on the fitted dose curve; in most records, active means well fitted inhibition curve with a large enough effect; inconclusive means small, poorly fitted or top-dose-only effect; inactive means no such curve, though single readings can be large or run the other way. Where the call is inconclusive, the potency comes from a doubtful curve fit. Potency means the concentration at half of the fitted maximal effect; tags describe the fitted curve by direction and shape."}
{"biological_target": "Lysine-specific demethylase 5B (Homo sapiens) (UniProt Q9UGL1)", "sequence (Q9UGL1 whole entry, looked up)": "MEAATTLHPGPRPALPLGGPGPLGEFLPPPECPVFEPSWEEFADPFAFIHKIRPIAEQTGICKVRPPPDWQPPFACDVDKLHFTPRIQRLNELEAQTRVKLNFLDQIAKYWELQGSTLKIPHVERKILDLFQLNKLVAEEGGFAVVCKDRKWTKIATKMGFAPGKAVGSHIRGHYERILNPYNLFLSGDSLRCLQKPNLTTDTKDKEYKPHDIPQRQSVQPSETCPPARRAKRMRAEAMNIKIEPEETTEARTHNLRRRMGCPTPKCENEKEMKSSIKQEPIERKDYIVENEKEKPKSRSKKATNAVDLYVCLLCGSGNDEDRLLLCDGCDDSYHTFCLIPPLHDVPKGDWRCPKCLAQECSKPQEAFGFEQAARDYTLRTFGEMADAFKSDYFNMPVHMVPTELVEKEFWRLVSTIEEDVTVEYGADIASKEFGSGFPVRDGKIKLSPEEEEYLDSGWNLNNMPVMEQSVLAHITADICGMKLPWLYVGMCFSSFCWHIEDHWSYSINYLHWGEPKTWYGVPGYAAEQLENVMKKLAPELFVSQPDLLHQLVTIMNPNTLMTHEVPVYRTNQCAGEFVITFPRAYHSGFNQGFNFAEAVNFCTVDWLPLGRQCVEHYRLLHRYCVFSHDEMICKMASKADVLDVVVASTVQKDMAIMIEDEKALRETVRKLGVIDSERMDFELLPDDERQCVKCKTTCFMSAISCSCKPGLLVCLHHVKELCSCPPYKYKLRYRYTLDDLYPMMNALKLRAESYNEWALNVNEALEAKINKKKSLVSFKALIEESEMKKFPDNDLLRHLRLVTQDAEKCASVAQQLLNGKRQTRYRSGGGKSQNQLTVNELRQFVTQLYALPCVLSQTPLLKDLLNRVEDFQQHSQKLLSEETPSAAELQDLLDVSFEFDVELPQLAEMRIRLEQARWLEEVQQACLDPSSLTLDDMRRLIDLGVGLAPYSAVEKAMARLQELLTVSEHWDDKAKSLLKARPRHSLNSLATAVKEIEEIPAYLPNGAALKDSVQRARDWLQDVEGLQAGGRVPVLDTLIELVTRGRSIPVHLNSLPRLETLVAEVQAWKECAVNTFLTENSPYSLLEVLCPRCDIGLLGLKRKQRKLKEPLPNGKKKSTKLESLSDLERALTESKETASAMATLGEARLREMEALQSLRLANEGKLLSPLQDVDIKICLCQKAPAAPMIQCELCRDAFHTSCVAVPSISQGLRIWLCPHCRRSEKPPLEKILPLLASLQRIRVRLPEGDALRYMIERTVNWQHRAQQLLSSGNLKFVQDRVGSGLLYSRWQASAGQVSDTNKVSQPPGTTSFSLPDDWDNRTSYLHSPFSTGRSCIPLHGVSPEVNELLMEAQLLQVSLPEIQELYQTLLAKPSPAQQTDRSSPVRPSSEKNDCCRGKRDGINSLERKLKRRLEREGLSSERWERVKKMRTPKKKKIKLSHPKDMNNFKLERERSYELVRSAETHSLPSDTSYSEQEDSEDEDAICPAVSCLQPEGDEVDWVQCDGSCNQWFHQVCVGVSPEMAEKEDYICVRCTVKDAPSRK", "assay": "Primary screen for KDM5B Histone Demethylases FDH-coupled qHTS; further: nearly all actives have a fitted effect of over 70% in size; on activity change, negative = inhibition: 0% is about no effect", "details": "FDH-coupled NADH fluorescence (FDH is formaldehyde dehydrogenase); activity change, negative = inhibition: at 57.7 µM (top of the series) unless noted", "in_short": "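qHTS format, multiple compound concentrations. Buffer 50 mM HEPES pH 7.5/0.01% Tween-20; 200 nM KDM5BΔAP final; 10 min compound preincubation; substrate-mix levels 12.5 µM peptide, 25 µM α-KG, 0.25 mM NAD⁺; 30 min RT; ΔRFU.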"}
{"smiles": "CN1CC(=O)N(c2ccc(Cl)cc2)Cc2c1ncnc2N1CCC(O)CC1", "Potency": "inconclusive: 35.5 µM [inhibitor, partial curve, poor fit]"}
{"smiles": "O=C(COC(=O)c1cc2ccccc2[nH]1)Nc1ccc2ccccc2c1", "Potency": "inconclusive: 25.1 µM [inhibitor, single point]"}
{"smiles": "Cc1c(OC(C)C(=O)O)ccc2c3c(c(=O)oc12)CCCC3", "note": "(configuration not stated)", "Potency": "inconclusive: 25.1 µM [inhibitor, partial curve, poor fit]"}
{"smiles": "COc1ccc(N2CCN(C(=O)CCNS(=O)(=O)c3ccc4c(c3)CCN4C(=O)C3CC3)CC2)cc1", "Potency": "inconclusive: 2 µM [inhibitor, partial curve, poor fit]"}
{"smiles": "COc1ccccc1CNc1nc(=S)[nH]c2cc(OC)c(OC)cc12", "Potency": "inconclusive: 35.5 µM [inhibitor, single point]"}
{"smiles": "CCOCCCNC(=O)NC(CCC(C)C)c1c(-n2cccc2)sc2c1CCN(C)C2", "note": "(configuration not stated)", "Potency": "inconclusive: 1.26 µM [inhibitor, partial curve, poor fit]"}
{"smiles": "Cc1ccc(S(=O)(=O)NCCc2csc(-c3cccc(F)c3)n2)c(C)c1", "activity change, negative = inhibition": "inactive: -26.5%"}
{"smiles": "COc1ccc(S(=O)(=O)Nc2nc3ccccc3nc2Nc2ccc(Br)cc2)cc1", "activity change, negative = inhibition": "inactive: -9.51%"}
{"smiles": "Cc1ncc(S(C)(=O)=O)c(NCCCNc2cccnc2)n1", "Potency": "inconclusive: 10 µM [inhibitor, partial curve, poor fit]"}
{"smiles": "Cc1cc(OC(C)C(=O)NCc2cccnc2)c2c(C)c(C)c(=O)oc2c1", "note": "(configuration not stated)", "Potency": "inconclusive: 35.5 µM [inhibitor, partial curve, poor fit]"}
{"smiles": "Cc1occc1C(=O)NC(C)c1cccc(Br)c1", "note": "(configuration not stated)", "activity change, negative = inhibition": "inactive: 23.4%"}
{"smiles": "O=C(NCc1cccc(F)c1)C1CCN(C(=O)c2sccc2-n2cccc2)CC1", "Potency": "inconclusive: 3.16 µM [inhibitor, partial curve, poor fit]"}
{"smiles": "COCCOc1ccc(C(=O)N[C@@H]2CN(C(=O)Nc3ccccc3C(=O)OC)CCC[C@H]2O)cc1", "activity change, negative = inhibition": "inactive: -339%"}
{"smiles": "Cc1ccc2oc(C(=O)Nc3nnc(C)s3)cc(=O)c2c1", "activity change, negative = inhibition": "inactive: 12.2%"}
{"smiles": "Cc1ccc(-c2csc(/C(C#N)=C/c3ccccc3Cl)n2)cc1", "Potency": "inconclusive: 25.1 µM [inhibitor, partial curve, poor fit]"}
{"smiles": "O=C(Nc1ccc(F)cc1)c1cccn1-c1nnc(N2CCCCC2)s1", "Potency": "inconclusive: 28.2 µM [inhibitor, partial curve, poor fit]"}
{"smiles": "CCCN1C=NS(=O)(=O)c2cc(C(=O)NC(C)c3ccccc3)ccc21", "note": "(configuration not stated)", "activity change, negative = inhibition": "inactive: 11.9%"}
{"smiles": "Cc1cc(C)c(CNC(=O)c2nc(-c3cccc(O)c3)cc3[nH]ccc23)c(=O)[nH]1", "Potency": "active: 31.6 µM"}
{"smiles": "COc1cccc(Oc2c(C)oc3c(CN4CCCC4)c(O)ccc3c2=O)c1", "Potency": "inconclusive: 22.4 µM [inhibitor, partial curve, poor fit]"}
{"smiles": "COc1cccc(C2C(C(=O)Nc3ccccc3OC)=C(C)Nc3nc4ccccc4n32)c1", "note": "(configuration not stated)", "Potency": "inconclusive: 39.8 µM [inhibitor, single point]"}
{"smiles": "Cc1ccc(-c2ccc3nnc(SCC(N)=O)n3n2)cc1", "Potency": "inconclusive: 35.5 µM [inhibitor, partial curve, poor fit]"}
{"smiles": "COc1ccccc1-c1[nH]nc2ncc(-c3ccnn3C)nc12", "Potency": "inconclusive: 28.2 µM [inhibitor, partial curve]"}
{"smiles": "Cc1ccc2cccc(NC(=O)c3ccc(-c4ccc(Br)cc4)o3)c2n1", "Potency": "inconclusive: 44.7 µM [inhibitor, single point]"}
{"smiles": "CC(C)N1C[C@H](O)C[C@H]1c1nnc2n1CCN(C(=O)c1ccsc1)C2", "Potency": "inconclusive: 39.8 µM [inhibitor, single point]"}
{"smiles": "O=C(NCc1ccc(Cl)cc1)[C@@H]1Cc2nc[nH]c2CN1Cc1cc2ccccc2o1", "Potency": "inconclusive: 35.5 µM [inhibitor, partial curve]"}
{"smiles": "COc1cccc(CNC(=O)[C@H](Cc2ccccc2)NC(=O)N2CCn3c2nc2ccccc23)c1", "activity change, negative = inhibition": "inactive: -4.61%"}
{"smiles": "O=C(C1CCCC1)N1CC2(CCCCN2CC2CC2)Cc2ccccc21", "note": "(configuration not stated)", "activity change, negative = inhibition": "inactive: 23.6% [at 115 µM]"}
{"smiles": "Cn1c(CNC(=O)CC2CCOCC2)nc2ccccc21", "activity change, negative = inhibition": "inactive: -21.8%"}
{"smiles": "CSC1=N/C(=C\\c2ccc(Cl)c(Cl)c2)C(=O)S1", "activity change, negative = inhibition": "inactive: -0.749%"}
{"smiles": "Cc1nn(S(=O)(=O)c2ccc(Cl)cc2)c(C)c1S(=O)(=O)N1CCCCCC1", "Potency": "inconclusive: 22.4 µM [inhibitor, partial curve, poor fit]"}
{"smiles": "CCc1ccc(NC(=O)N2CCC(OC3CCN(S(C)(=O)=O)CC3)CC2)cc1", "activity change, negative = inhibition": "inactive: -15.2%"}
{"smiles": "CCOc1ccc2nc(SCC(=O)N3CCN(S(=O)(=O)c4ccccc4)C3C(C)C)[nH]c2c1", "note": "(configuration not stated)", "activity change, negative = inhibition": "inactive: -5.96%"}
{"smiles": "Cc1cc(C)c2c(-n3cccc3)c(C(=O)NCCCN3CCCCC3C)sc2n1", "note": "(configuration not stated)", "Potency": "inconclusive: 28.2 µM [inhibitor, single point]"}
{"smiles": "O=C(CCC(=O)OCC(=O)c1ccc([N+](=O)[O-])cc1)Nc1cc(C(F)(F)F)ccc1Cl", "Potency": "inconclusive: 12.6 µM [inhibitor, partial curve, poor fit]"}
{"smiles": "Cn1c(=O)c2c(ncn2CC(=O)N(c2ccccc2)C2CCCCC2)n(C)c1=O", "activity change, negative = inhibition": "inactive: -9.86%"}
{"smiles": "C[C@]1(O)CCN(Cc2ccc(-c3ccccc3C#N)o2)C[C@@H]1O", "Potency": "active: 25.1 µM"}
{"smiles": "Cc1[nH]ncc1CNC(=O)C1CCCN(Cc2ccncc2)CCC(=O)NCC1", "note": "(configuration not stated)", "Potency": "inconclusive: 31.6 µM [inhibitor, partial curve, poor fit]"}
{"smiles": "CCn1c(SCc2ccccc2Cl)nc(=O)c2c(C(=O)OC)cc(C3CC3)nc21", "Potency": "inconclusive: 28.2 µM [inhibitor, single point]"}
{"smiles": "CCc1cc(=O)n(CC(=O)Nc2cccc(C(C)C)c2)c(N2CCOCC2)n1", "Potency": "inconclusive: 25.1 µM [inhibitor, single point]"}
{"smiles": "COc1ccc(C(C(=O)NCc2ccccc2)N(Cc2ccco2)C(=O)c2snc(C(N)=O)c2N)cc1OC", "note": "(configuration not stated)", "Potency": "inconclusive: 28.2 µM [inhibitor, partial curve, poor fit]"}
{"smiles": "COc1ccc(-c2nc(C#N)c(NCCc3ccccc3)o2)cc1", "Potency": "inconclusive: 28.2 µM [inhibitor, partial curve, poor fit]"}
{"smiles": "Cn1ccc(NC(=O)[C@@H]2C[C@H](c3ccc(F)cc3)N(Cc3ccccc3Cl)C2)n1", "Potency": "inconclusive: 35.5 µM [inhibitor, partial curve, poor fit]"}
